The values below come from the antibiotic and cytotoxicity screens of Wong et al. (2023).

Experiment [1] has as its system HSkMC (human skeletal muscle cells). As to the kind of experiment: cytotoxicity call (relative viability < 0.9). Particulars: 10 µM.
The subject of experiment [2] is HepG2. Description: cytotoxicity call (relative viability < 0.9). The following applies: 10 µM.
Experiment [3] concerns S. aureus RN4220. Description: growth inhibition call (relative growth <= 0.2). The following applies: 50 µM.

This is one part of the list.

`COc1ccc(S(=O)(=O)N2C[C@H](O)COC[C@H]3O[C@@H](CC(=O)NCCN4CCCCC4)CC[C@@H]32)cc1`: the cytotoxicity call in experiment [1] and in experiment [2] was “inactive” each time. In addition, the growth inhibition call in experiment [3] was “inactive”.

With `Cc1ccc(C(C)C)c(O)c1`, the cytotoxicity call in experiment [1] and in experiment [2] was “inactive” throughout. Further, the growth inhibition call in experiment [3] is “inactive”.

As to `C[C@H](CO)N1C[C@H](C)[C@@H](CN(C)S(C)(=O)=O)Oc2ccc(NS(=O)(=O)c3cn(C)cn3)cc2CC1=O`, the cytotoxicity call in experiment [1] and in experiment [2] was “inactive” throughout. Moreover, the growth inhibition call in experiment [3] is “inactive”.

Take `CN(C)C1C(O)=C(C(N)=O)C(=O)C2(O)C(O)=C3C(=O)c4c(O)cccc4C(C)(O)C3CC12.Cl` (stereo not drawn): the cytotoxicity call in experiment [1] and in experiment [2] was “inactive” throughout. Also, the growth inhibition call in experiment [3] was “inactive”.

For the compound `CCC(CC)C(=O)N[C@@H]1CC(=O)N(C)C1`, the cytotoxicity call in experiment [1] and in experiment [2] was “inactive” each time. In addition, the growth inhibition call in experiment [3] was “inactive”.

Consider `Cc1noc(C)c1NC(=O)Nc1cccc2c1O[C@H](CN(C)Cc1ccc(Oc3ccccc3)cc1)[C@H](C)CN([C@@H](C)CO)C2=O`, for which the cytotoxicity call in experiment [1] and in experiment [2] was “inactive” throughout. In addition, the growth inhibition call in experiment [3] was “inactive”.

In the case of `C[C@H]1CN([C@@H](C)CO)C(=O)c2cccc(NC(=O)c3cnccn3)c2O[C@H]1CN(C)C(=O)Nc1ccc(F)cc1`, the cytotoxicity call in experiment [1] and in experiment [2] was “inactive” in each case. Moreover, the growth inhibition call in experiment [3] is “inactive”.

For `Cc1ccc2sc(N(CCCN(C)C)C(=O)c3ccc(S(=O)(=O)N(C)C4CCCCC4)cc3)nc2c1C`, the cytotoxicity call in experiment [1] and in experiment [2] was “active” in each case. Also, the growth inhibition call in experiment [3] is “active”.

As to `Cc1noc(C)c1S(=O)(=O)Nc1ccc2c(c1)CC(=O)N([C@H](C)CO)C[C@@H](C)[C@@H](CN(C)CC1CC1)O2`, the cytotoxicity call in experiment [1] and in experiment [2] was “inactive” in each case. In experiment [3], the growth inhibition call is “inactive”.

Take `Cc1ccccc1S(=O)(=O)N1C[C@@H](O)COC[C@H]2O[C@H](CC(=O)NCCc3ccncc3)CC[C@@H]21`: the cytotoxicity call in experiment [1] and in experiment [2] was “inactive” in each case. The growth inhibition call in experiment [3] was “inactive”.

As for `CCN(CC)CCOc1ccc(C(=C(Cl)c2ccccc2)c2ccccc2)cc1.O=C(O)CC(O)(CC(=O)O)C(=O)O`, the cytotoxicity call in experiment [1] was “inactive”. Moreover, in experiment [2], the cytotoxicity call was “active”. In experiment [3], the growth inhibition call is “inactive”.

On to `COc1cccc(S(=O)(=O)N(C)C[C@H]2Oc3ncc(C#CC(C)C)cc3C(=O)N([C@@H](C)CO)C[C@H]2C)c1`, for which the cytotoxicity call in experiment [1] and in experiment [2] was “inactive” in each case. For the same compound, the growth inhibition call in experiment [3] is “inactive”.

Consider `O=C(CCCCCCC(=O)Nc1ccc([C@H]2O[C@@H](CSc3ccncc3)C[C@H](c3ccccc3)O2)cc1)NO`, for which the cytotoxicity call in experiment [1] and in experiment [2] was “inactive” each time. Moreover, the growth inhibition call in experiment [3] is “inactive”.

As to `CNC(=O)C[C@H]1CC[C@H]2[C@H](COc3ccc(NC(=O)c4ccc(C(F)(F)F)cc4)cc3C(=O)N2C)O1`, the cytotoxicity call in experiment [1] and in experiment [2] was “inactive” each time. Also, the growth inhibition call in experiment [3] is “inactive”.

Take `Cc1noc(C)c1NC(=O)Nc1ccc2c(c1)C(=O)N([C@H](C)CO)C[C@@H](C)[C@H](CN(C)Cc1ccc(C(=O)O)cc1)OCCCC[C@@H](C)O2`: the cytotoxicity call in experiment [1] and in experiment [2] was “inactive” throughout. The growth inhibition call in experiment [3] is “inactive”.

With `COCC(=O)Nc1ccc2c(c1)OC[C@H](C)N(C(=O)c1ccccc1F)C[C@@H](C)[C@@H](OC)CN(C)C2=O`, the cytotoxicity call in experiment [1] and in experiment [2] was “inactive” throughout. The growth inhibition call in experiment [3] was “inactive”.

As to `C[C@@H]1CN([C@@H](C)CO)C(=O)c2cc(Br)cnc2O[C@@H]1CN(C)S(C)(=O)=O`, the cytotoxicity call in experiment [1] and in experiment [2] was “inactive” throughout. Besides, in experiment [3], the growth inhibition call was “inactive”.

Take `COc1ccc(-c2cnc3c(c2)C(=O)N([C@H](C)CO)C[C@@H](C)[C@@H](CN(C)C(=O)Cc2ccncc2)O3)cc1`: the cytotoxicity call in experiment [1] and in experiment [2] was “inactive” each time. Further, the growth inhibition call in experiment [3] is “inactive”.

As for `CC(C)NNC(=O)c1ccncc1.O=P(O)(O)O`, the cytotoxicity call in experiment [1] and in experiment [2] was “inactive” each time. In addition, the growth inhibition call in experiment [3] is “inactive”.

As for `COc1ccc(NC(=O)Nc2ccc3c(c2)C(=O)N([C@@H](C)CO)C[C@@H](C)[C@@H](CN(C)C(=O)NC2CCCCC2)OCCCC[C@@H](C)O3)cc1`, in experiment [1], the cytotoxicity call was “active”. The cytotoxicity call in experiment [2] was “inactive”. Further, the growth inhibition call in experiment [3] is “inactive”.

Turning to `C[C@H]1CN([C@@H](C)CO)C(=O)c2cccc(NS(=O)(=O)c3cn(C)cn3)c2O[C@H]1CN(C)S(=O)(=O)c1ccc(Cl)cc1`, the cytotoxicity call in experiment [1] and in experiment [2] was “inactive” each time. The growth inhibition call in experiment [3] is “inactive”.

Regarding `C[C@@H]1CN([C@H](C)CO)C(=O)c2cccc(NC(=O)Nc3ccc(C(F)(F)F)cc3)c2O[C@@H]1CN(C)C(=O)Nc1cccc2ccccc12`, the cytotoxicity call in experiment [1] is “active”. The cytotoxicity call in experiment [2] was “inactive”. Further, the growth inhibition call in experiment [3] was “inactive”.

For `C[C@@H]1CN([C@H](C)CO)C(=O)c2cc(NS(C)(=O)=O)ccc2O[C@@H](C)CCCCO[C@@H]1CN(C)S(=O)(=O)c1cn(C)cn1`, the cytotoxicity call in experiment [1] and in experiment [2] was “inactive” each time. Also, in experiment [3], the growth inhibition call was “inactive”.

Regarding `Cc1cc(=O)oc2cc(O)ccc12`, the cytotoxicity call in experiment [1] and in experiment [2] was “inactive” in each case. In addition, in experiment [3], the growth inhibition call is “inactive”.

In the case of `C[C@H](CO)N1C[C@H](C)[C@H](CN(C)C(=O)Nc2ccc(F)cc2)Oc2c(NC(=O)Nc3ccc(C(F)(F)F)cc3)cccc2C1=O`, the cytotoxicity call in experiment [1] and in experiment [2] was “active” each time. Moreover, the growth inhibition call in experiment [3] was “active”.

Consider `C[C@H](CO)N1C[C@H](C)[C@@H](CN(C)C(=O)Nc2ccc(C(F)(F)F)cc2)Oc2ncc(C#C[C@@H](C)O)cc2C1=O`, for which the cytotoxicity call in experiment [1] and in experiment [2] was “inactive” each time. Also, the growth inhibition call in experiment [3] was “inactive”.

Consider `C[C@H](O)C#Cc1ccc2c(c1)O[C@@H](CN(C)C(=O)CN(C)C)[C@@H](C)CN([C@H](C)CO)S2(=O)=O`, for which the cytotoxicity call in experiment [1] and in experiment [2] was “inactive” in each case. The growth inhibition call in experiment [3] is “inactive”.

Turning to `NNC(=O)C1[C@H]2CCCC[C@@H]12` (stereo partly drawn), the cytotoxicity call in experiment [1] and in experiment [2] was “inactive” in each case. Besides, the growth inhibition call in experiment [3] is “inactive”.

On to `C[C@@H]1CN([C@H](C)CO)C(=O)c2cccc(NC(=O)Nc3ccccc3)c2O[C@H]1CN(C)Cc1ccc(C(F)(F)F)cc1`, for which the cytotoxicity call in experiment [1] and in experiment [2] was “active” throughout. Besides, the growth inhibition call in experiment [3] is “inactive”.

On to `C[C@H](N[C@@H](CCc1ccccc1)C(=O)O)C(=O)N1CCC[C@H]1C(=O)O`, for which the cytotoxicity call in experiment [1] and in experiment [2] was “inactive” throughout. The growth inhibition call in experiment [3] is “inactive”.

With `CN1CCN(C(=O)C[C@@H]2C=C[C@@H](NS(=O)(=O)c3cccc(F)c3)[C@H](CO)O2)CC1`, the cytotoxicity call in experiment [1] and in experiment [2] was “inactive” in each case. In experiment [3], the growth inhibition call was “inactive”.

Consider `C[C@H](CO)N1C[C@H](C)[C@H](CN(C)Cc2ccc3c(c2)OCO3)Oc2ccc(NS(=O)(=O)c3cn(C)cn3)cc2CC1=O`, for which the cytotoxicity call in experiment [1] and in experiment [2] was “inactive” throughout. Moreover, the growth inhibition call in experiment [3] is “inactive”.

For the compound `C[C@H]1CCCCO[C@H](CN(C)C(=O)Cc2ccccc2)[C@@H](C)CN([C@@H](C)CO)C(=O)c2cc(NC(=O)Nc3ccc4c(c3)OCO4)ccc2O1`, the cytotoxicity call in experiment [1] and in experiment [2] was “inactive” in each case. Moreover, the growth inhibition call in experiment [3] is “inactive”.

Take `COc1ccc(S(=O)(=O)Nc2cccc3c2O[C@H](CN(C)S(=O)(=O)c2cn(C)cn2)[C@@H](C)CN([C@H](C)CO)C3=O)cc1`: the cytotoxicity call in experiment [1] and in experiment [2] was “inactive” throughout. The growth inhibition call in experiment [3] was “inactive”.

`C[C@@H]1CN([C@H](C)CO)S(=O)(=O)c2ccc(C3=CCCCC3)cc2O[C@H]1CN(C)Cc1cncnc1`: the cytotoxicity call in experiment [1] and in experiment [2] was “inactive” throughout. For the same compound, the growth inhibition call in experiment [3] is “inactive”.

Regarding `CC1OC(OC2C(Oc3cc(O)c4c(c3)OC(c3ccc(O)cc3)CC4=O)OC(CO)C(O)C2O)C(O)C(O)C1O` (stereo not drawn), the cytotoxicity call in experiment [1] and in experiment [2] was “inactive” throughout. For the same compound, the growth inhibition call in experiment [3] was “inactive”.

Consider `CC(=O)N1CCC(C(=O)O)CC1`, for which the cytotoxicity call in experiment [1] and in experiment [2] was “inactive” each time. For the same compound, the growth inhibition call in experiment [3] was “inactive”.

As for `C[C@H]1CN([C@@H](C)CO)C(=O)c2cc(NC(=O)Nc3ccc(C(F)(F)F)cc3)ccc2O[C@@H]1CN(C)S(=O)(=O)c1ccc(F)cc1`, the cytotoxicity call in experiment [1] and in experiment [2] was “inactive” each time. Moreover, the growth inhibition call in experiment [3] was “inactive”.

`Cn1c(=O)c2c(ncn2CC(=O)N2CCN(c3ccccc3F)CC2)n(C)c1=O`: the cytotoxicity call in experiment [1] and in experiment [2] was “inactive” in each case. For the same compound, the growth inhibition call in experiment [3] is “inactive”.

Turning to `CCS(=O)(=O)N1C[C@]2(C1)CN([C@@H](CO)c1[nH]c3cc(ccc3c12)OC)S(=O)(=O)c1cccc(c1)OC`, the cytotoxicity call in experiment [1] and in experiment [2] was “inactive” throughout. Moreover, the growth inhibition call in experiment [3] was “inactive”.

On to `NCCn1ncccc1=O`, for which the cytotoxicity call in experiment [1] and in experiment [2] was “inactive” throughout. Further, the growth inhibition call in experiment [3] is “inactive”.
